Measurements reported in PubChem BioAssay AID1508624 (National Center for Advancing Translational Sciences (NCATS), 2021).
Hit rate of the full screen: of about 48,000 compounds, about 120 (0.25%) were called active. Inconclusive results (about 4%) are left out. The call rests on the fitted dose curve; in most records, active means well fitted activation curve with a large enough effect; inconclusive means small, poorly fitted or top-dose-only effect, or another doubt; inactive means no such curve, though single readings can be large or run the other way. This is one part of the list.

Assay: Primary qHTS for Identification of Small Molecule Activators of Huntingtin-Antisense Promoter Activity; further: nearly all actives have a fitted effect of over 55% in size
Details: HEK293 HTT-AS promoter firefly luciferase reporter, 24 h; series mostly up to 57.5 µM; activity change, positive = activation: at the top concentration
Method in brief: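 Firefly luciferase readout (Dual-Glo, 10 min RT) after 24 h, 37 °C compound exposure (final up to 57.5 uM) of HEK293 reporter cells cultured 24 h beforehand; PTC124 at 50 uM final as control inhibitor; activity scaled vehicle 0%, zero RLU -100%.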

Activity change, positive = activation, inactive:
CCOC(=O)c1oc2ccc(S(=O)(=O)n3nc(-c4ccc(Br)cc4)cc3N)cc2c1C -36.7%, COc1ccc(CNC(=O)c2c3c(nc4ccccc24)C(=O)N(C2CCCCC2)C3)cc1 -13.6%, O=C(Cc1ccccc1)NCCc1csc2nc(-c3ccc(Cl)cc3)nn12 -35.6%, COc1ccccc1CNS(=O)(=O)c1ccc2c(c1)NC(=O)CC(=O)N2 -5.48%, Cc1ccc(-n2nc(C)c3c(C(=O)NCc4ccccc4)cc(C4CC4)nc32)cc1 -24%, COc1ccccc1Nc1nn2c(=O)c3ccc(C(=O)N4CCCC(C)C4)cc3nc2s1 (stereo not given) -36.5%, Cc1ccc(S(=O)(=O)NCc2nc(-c3cccc(C)c3)no2)cc1 -30.5%, COc1ccc(C2CC(=O)N(Cc3cccc(F)c3)c3ccccc3S2)cc1 (stereo not given) -53.9%, CCCCNC(=O)CCCn1c(=O)c2ccccc2n(CC(=O)Nc2ccccc2OCC)c1=O -12.6%, CCCc1cnc2c(c1SCC(=O)Nc1ccc(C)c(Cl)c1)c(=O)n(C)c(=O)n2C -29.5%, COc1cc(/C=C(\C#N)c2nc3ccccc3[nH]2)ccc1OCc1cccc(C(F)(F)F)c1 -53.9%, CCOc1ccccc1NC(=O)c1ccc(F)c(S(=O)(=O)NCc2ccc3c(c2)OCO3)c1 -20.6%, CCOc1ccccc1NC(=O)N1CCc2c(sc(C)c2CC)C1c1ccccc1 (stereo not given) 0%, COc1ccc(CNc2ncnc3onc(-c4ccc(F)cc4)c23)cc1 -33.9%, CN(C(=O)Cn1cc(S(=O)(=O)Cc2ccccc2Cl)c2ccccc21)c1ccccc1 -26.5%, COc1ccc(-c2nn3c(-c4ccccc4C)nnc3c3ccccc23)cc1 -49.4%, Cc1ccc(Cl)cc1N1CCN(S(=O)(=O)c2ccc3c(c2)CC(C)N3C(=O)C2CCC2)CC1 (stereo not given) -11.3% [at 11.5 µM, percent change from vehicle, -100% = no light], CCOCCCNc1ncnc2onc(C)c12 -8.27%, CC(=O)c1ccc(NC(=O)c2sc(-n3nc(C)c(Cc4ccccc4)c3C)nc2C)cc1 0.211%, Cc1cccc(NC(=O)Nc2nnc(N(C)Cc3ccccc3)s2)c1 -21.3%, Cn1c(=O)c2c(ncn2CC(=O)Nc2cccc(Cl)c2Cl)n(C)c1=O -8.26%, Cc1ccccc1C(=O)NC1(C(F)(F)F)C(=O)Nc2c1c(=O)[nH]c(=O)n2-c1ccc(F)cc1 (stereo not given) 2.31%, Cc1noc(/C=C/c2cccs2)c1S(=O)(=O)N1CCC(C(=O)NCc2ccccc2Cl)CC1 -14.8%, CCN(Cc1ccccc1)Cc1c(O)ccc2c(=O)c(-c3ccc(Cl)cc3Cl)coc12 -22.3%, CCOC(=O)c1cccc(NC(=O)C2Cc3ccccc3N2C(=O)c2ccccc2)c1 (stereo not given) -7.55%, O=C(OCc1ccccc1)c1ccccc1 14.8%, CCOc1ccc(C(=O)NC2CC(=O)N(c3ccc(C)cc3)C2)cc1OCC (stereo not given) -5.31%, Cc1ccc(-c2nc(NC(=O)CSc3nc(C)nc4sc5c(c34)CCCC5)ns2)cc1 -7.15%, CC1CCN(S(=O)(=O)c2ccc3c(ccn3CCC(=O)NCc3ccccc3F)c2)CC1 -3.48%, Cc1sc2c(c1C)c(=O)n(Cc1ccccc1)c(=O)n2Cc1ccc(F)cc1 5.29%, COc1ccc(NC(=O)c2c(-c3ccccc3)c(-c3ccccc3)nn(C)c2=O)cc1OC 3.71%, Cc1ccc(C)c(Cn2c(=O)n(C(C)C)c(=O)c3oc4ccccc4c32)c1 -5.8%, Cc1ccccc1CNC(=O)CN1C(=O)C2CCCCN2c2ccc(C(=O)N3CCCC3)cc21 (stereo not given) -13.9%, Cc1ccccc1NC(=O)CCS(=O)(=O)c1cc(Br)cc2c1N(C(=O)C1CC1)CC2 -9.27%, CCc1nn(CC(=O)N2CCCCC2)c(=O)c2cc3sc(C)cc3n12 0.835%, O=C(Nc1ccc2c(c1)N(C1CCCC1)C(=O)c1ccccc1S2)c1ccccc1F -35.2%, Cc1ccccc1OCC(=O)Nc1cccc(C(=O)OCc2cc(=O)n3c(C)csc3n2)c1 -35.8%, Cc1ccc(S(=O)(=O)Cc2ccc(C(=O)N3CCN(c4cccc(Cl)c4)CC3)o2)cc1 -44.5%, O=C(Cn1c(=O)n(-c2ccc(Cl)cc2)c(=O)c2sc3ccccc3c21)NC1CCCC1 -5.39%, COC(=O)c1ccccc1NC(=O)c1cc2cc(C)ccc2n1C -25.4%, CCOc1ccc(-c2c(C)nn3c(C)c(C(=O)NCCc4ccc(Cl)cc4)cnc23)cc1OCC -36.9%, c1ccc(CN2CCN(c3ncnc4c3cnn4-c3ccccc3)CC2)cc1 12.9%, CCc1nc2cccnc2n1-c1ccc(CC(=O)Nc2cccc(C)c2C)cc1 -22%, CCC1=Nc2cc(C(=O)NCCN(CC)CC)ccc2Sc2ccccc21 -7.96%, Cc1ccc(NC(=O)c2cc(S(=O)(=O)N3CCc4ccccc43)cn2C)c(Cl)c1 -37.1%, CCc1cccc(NC(=O)C2CCC(CNS(=O)(=O)c3ccc(Br)s3)CC2)c1 (stereo not given) -28%, CCc1ccc(-n2nc(CO)c(C(=O)NCCCc3ccccc3)n2)cc1 -5.24%, Cc1ccc(C)c(S(=O)(=O)c2nnn3c2nc(NC2CCCCC2)c2sccc23)c1 -48.5%, Cc1ccccc1Cn1c2ccccc2c2cnn(CC(=O)NCc3ccccn3)c(=O)c21 -14.9%, Cc1ccc(C)c(N2CCN(C(=O)NCc3noc4ccc(C)cc34)CC2)c1 -30.6%, O=C(NCCc1ccccc1)C1CCC(CNS(=O)(=O)c2ccc(Cl)cc2)CC1 (stereo not given) 21%, COc1ccc(-c2cc(-c3ccccc3)nc3c2COc2ccc(F)cc2-3)cc1 -9.34%, CCN(CC)C(=O)Cn1c(=O)cc(C)c2c(C)nn(-c3ccc(C)cc3)c21 -9.94%, Cc1ccc(CSc2ncc(Cl)c(C(=O)NCc3ccccc3)n2)cc1 -6.8%, CC(C)c1nn2c(=O)cc(COC(=O)c3ccc(NC(=O)C4CCCCC4)cc3)nc2s1 -1.66%, COc1ccc2[nH]c3c(c2c1)CCN(C(=O)c1cccc(Cl)c1)C3c1ccc(F)cc1 (stereo not given) -36.7%, Cc1ccc(S(=O)(=O)N2CCCc3cc(NS(=O)(=O)c4cc(C)ccc4C)ccc32)cc1 -26.5%, COc1ccc(-c2cn3cccnc3n2)cc1NC(=O)Nc1ccc(Cl)cc1 24.9%, Cc1ccc(C(=O)c2oc3ccccc3c2NC(=O)COc2ccc(C(C)C)cc2)cc1 -8.32%, O=C(Nc1ccc(S(=O)(=O)Nc2ncccn2)cc1)c1cc(=O)c2ccccc2o1 2.4%, CCOc1ccc(NC(=O)c2ccc3c(c2)CCN3S(=O)(=O)CC)cc1 -29.8%, CCc1ccc(NC(=O)CN2C(=O)C(c3ccc(C)cc3)=NC23CCCCC3)cc1 -27.4%, Cc1cccc(Cn2cccc2CNS(=O)(=O)c2ccccc2F)c1 -12.2%, CCc1ccc(CNC(=O)Cn2nc(C)n3c(cc4cc(C)ccc43)c2=O)cc1 -6.06%, COc1ccc(NC(=O)C(Cc2ccccc2)NS(=O)(=O)c2ccc3c(c2)CCC(=O)N3)c(OC)c1 (stereo not given) -15.6%, CCOc1ccccc1CNC(=O)C1CCN(c2nnc(-n3c(C)ccc3C)s2)CC1 6.68%, CCCCOc1ccc(C2=NC(c3ccncc3)=Nc3ccc(OCC)cc3N2)cc1 1.2%, O=C(Cn1c(=O)n(CC2CCC(C(=O)NCCc3ccccc3)CC2)c(=O)c2ccccc21)Nc1ccccc1 (stereo not given) -21.7%, COc1ccc2sc(N(Cc3cccnc3)C(=O)C3CCCCC3)nc2c1 -22.5%, Cc1nn(-c2ccc(F)cc2)c(-n2cccc2)c1C(=O)NCCc1ccc(Cl)cc1 -39.7%, Cc1ccc2c(Cl)cc(Cl)c(O)c2n1 2.01%, Cc1cc(C)n2nc(CNS(=O)(=O)c3ccc(C)c(C)c3)nc2n1 -6.56%, CC(C)OCCCn1c(SCC(=O)c2ccccc2)nc2c(sc3ccccc32)c1=O -10.7%, COc1ccc(NC(=O)CSc2nc3nc(C)c(Cc4ccccc4)c(C)n3n2)cc1OC -27%, O=C(C1CCN(S(=O)(=O)c2cccc3nonc23)CC1)N1CCN(c2cccc(Cl)c2)CC1 -34.5%, Cc1ccc(Cn2c(=O)c3ccccc3n3c(-c4cccc(O)c4)nnc23)cc1 -20.2%, CCN(CC)CCOC(=O)c1ccc(NC(=O)Cn2ncc3c2-c2cc(C)ccc2OC3)cc1 -21.1%, Cc1nc2sccn2c(=O)c1S(=O)(=O)Nc1cc(Cl)ccc1O -14.1%, CCOC(=O)c1cc(-c2ccc(F)cc2)n(CC(=O)NC2CCCCCC2)c1C -20.6%, COc1ccc(NC(=O)c2c(NC(=O)COc3ccccc3)sc3c2CCC(C(C)(C)C)C3)cc1 (stereo not given) -12%, Cc1ccc(CN(Cc2ccco2)C(=O)c2ccc(OCC(C)C)cc2)cc1 -24.1%, CCCCN1CCc2nc(Nc3ccc(OC)cc3OC)ncc2C1 -0.0263%, Cc1ccc(C)c(N2CCN(C(=O)c3cc4c(=O)n(Cc5ccccc5)ccc4nc3C)CC2)c1 -13%, Cc1ccc2c(c1)N(C(=O)N1CCC(C(=O)NCCc3ccc(Cl)cc3)CC1)CC(C)O2 (stereo not given) -14.2%, CCOc1cccc2c1N[C@@H](c1ccc(C(=O)O)cc1)[C@H]1CC=C[C@@H]21 2.6%, Cc1cccc(NS(=O)(=O)c2ccc3[nH]c4c(c3c2)CCCCCC4)c1 -41.1%, Cc1ccc(-n2nc(C)c3c(C)c(CCC(=O)NCc4ccccc4Cl)c(C)nc32)cc1C -8.7%, COc1ccc(CCNC(=O)c2ccc3c(c2)N(Cc2ccc(F)cc2)C(=O)CS3)cc1OC -36%, Cc1cccc(-c2nc(CCNC(=O)Cc3ccccc3)cs2)c1 -13.2%, COc1ccc(OC)c(NC(=O)CSc2ccc(-c3sc(C)nc3C)nn2)c1 -25.9%, O=C(COc1ccc(Cl)cc1)Nc1ccc2nc(SCC(=O)N3CCCC3)sc2c1 -28.3%, Cc1nn(C(=O)c2cccc(Cl)c2)c(C)c1S(=O)(=O)N1CCOCC1 -14.7%, COc1ccc(CCNC(=O)C(=O)NCC(c2ccco2)S(=O)(=O)c2cccs2)cc1OC (stereo not given) -10.7%, CCC(=O)N1CCc2cc(S(=O)(=O)NC(CC(C)C)C(=O)NCCc3ccccc3)ccc21 (stereo not given) -13.6%, O=C(c1nc(-c2ccc(Cl)cc2)n2c1CCCCC2)N1CCN(c2ccccc2)CC1 -53.6%
